{"source": "paper PMC4336329", "about": "(PLoS ONE, 2015)", "note": "Among all 310,000 compounds or so, about 2,200 (0.71%) showed an effect of 50% or more. The effect is printed as a negative number. The list shows a part of the results."}
{"molecular_target": "human ether-à-go-go-related gene (hERG) potassium channel (human, UniProt Q12809)", "sequence (Q12809 whole entry, looked up)": "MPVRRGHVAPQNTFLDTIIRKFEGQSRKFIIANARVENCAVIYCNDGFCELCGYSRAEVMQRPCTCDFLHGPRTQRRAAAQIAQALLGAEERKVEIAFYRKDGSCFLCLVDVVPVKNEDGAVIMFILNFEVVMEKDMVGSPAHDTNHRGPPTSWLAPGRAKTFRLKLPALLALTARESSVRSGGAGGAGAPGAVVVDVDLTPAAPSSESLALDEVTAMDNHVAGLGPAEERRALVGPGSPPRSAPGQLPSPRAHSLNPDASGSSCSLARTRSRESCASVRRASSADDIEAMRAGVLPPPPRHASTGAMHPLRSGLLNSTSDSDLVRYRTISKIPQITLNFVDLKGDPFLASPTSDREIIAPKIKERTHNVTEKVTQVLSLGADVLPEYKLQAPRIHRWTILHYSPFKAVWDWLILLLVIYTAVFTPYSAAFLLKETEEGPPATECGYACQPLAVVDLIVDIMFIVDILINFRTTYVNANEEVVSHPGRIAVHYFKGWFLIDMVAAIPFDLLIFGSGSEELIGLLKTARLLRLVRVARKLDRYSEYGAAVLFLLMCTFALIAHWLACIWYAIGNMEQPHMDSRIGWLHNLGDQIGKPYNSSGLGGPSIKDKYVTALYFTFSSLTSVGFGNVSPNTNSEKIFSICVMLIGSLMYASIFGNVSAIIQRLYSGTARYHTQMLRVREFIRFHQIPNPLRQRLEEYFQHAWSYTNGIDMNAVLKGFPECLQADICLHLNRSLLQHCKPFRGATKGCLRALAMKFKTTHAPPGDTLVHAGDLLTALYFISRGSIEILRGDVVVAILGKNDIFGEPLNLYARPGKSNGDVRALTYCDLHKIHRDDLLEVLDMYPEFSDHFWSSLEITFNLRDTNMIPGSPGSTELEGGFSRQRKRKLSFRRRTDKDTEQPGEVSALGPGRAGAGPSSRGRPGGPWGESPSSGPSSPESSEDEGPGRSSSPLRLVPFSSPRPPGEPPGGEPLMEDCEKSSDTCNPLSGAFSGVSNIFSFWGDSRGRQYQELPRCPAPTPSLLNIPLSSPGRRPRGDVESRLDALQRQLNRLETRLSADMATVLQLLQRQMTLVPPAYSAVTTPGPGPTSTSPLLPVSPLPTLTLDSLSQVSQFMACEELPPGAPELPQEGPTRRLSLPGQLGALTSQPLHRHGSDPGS", "assay": "primary screen, population patch clamp on CHO cells stably expressing hERG", "units": {"hERG current change (%, negative = inhibition) at 1uM": "%"}}
{"smiles": "N#Cc1ccccc1NCC(=O)N1CCN(S(=O)(=O)c2ccccc2)CC1", "hERG current change (%, negative = inhibition) at 1uM": 7.24}
{"smiles": "O=C(NCc1ccc(F)cc1)C1CCCN1C(=O)Nc1cccc(F)c1", "note": "(centres unmarked)", "hERG current change (%, negative = inhibition) at 1uM": 4.71}
{"smiles": "COc1ccc(NC(=O)C(C)N2CCN(C)CC2)cc1.O=C(O)C(=O)O", "note": "(centres unmarked)", "hERG current change (%, negative = inhibition) at 1uM": 5.43}
{"smiles": "O=C(NN1CCOCC1)c1ccc(Cl)cc1[N+](=O)[O-]", "hERG current change (%, negative = inhibition) at 1uM": 12.8}
{"smiles": "COC(=O)[C@@H]1CCCN1Cc1c(C(=O)N2CCOCC2)nc2c(C)cccn12", "hERG current change (%, negative = inhibition) at 1uM": 11.8}
{"smiles": "Oc1ccc(NCc2cccc(OCc3ccc(F)cc3)c2)cc1", "hERG current change (%, negative = inhibition) at 1uM": 9.76}
{"smiles": "N#Cc1ccccc1CCN1C(=O)c2ccccc2C1=O", "hERG current change (%, negative = inhibition) at 1uM": 23.8}
{"smiles": "C=CCC1(NC(C)c2ccccc2)CCCCC1", "note": "(centres unmarked)", "hERG current change (%, negative = inhibition) at 1uM": 7.87}
{"smiles": "Cc1cc(Cl)ccc1OCC(=O)NCCCN1CCOCC1", "hERG current change (%, negative = inhibition) at 1uM": 6.41}
{"smiles": "CCNc1nc(NCC)nc(SCCOC(=O)Nc2ccccc2)n1", "hERG current change (%, negative = inhibition) at 1uM": -3.18}
{"smiles": "COc1ccc(NC(=O)CN(C)C(=O)c2cccc(S(=O)(=O)Nc3ccc(OC)cc3)c2)cc1", "hERG current change (%, negative = inhibition) at 1uM": -9.32}
{"smiles": "COc1ccccc1C(=O)Nc1ccc2c(c1)CN(Cc1cnc(C)s1)CC2", "hERG current change (%, negative = inhibition) at 1uM": 5.48}
{"smiles": "CC(C)S(=O)(=O)C1=NSC2=NC(=O)/C(=C\\c3ccc(OC(=O)c4ccco4)cc3)C(=N)N21", "hERG current change (%, negative = inhibition) at 1uM": 15.5}
{"smiles": "O=C1CCCC2=C1C(c1cccs1)n1nc(SCc3ccc(C(=O)O)cc3)nc1N2", "note": "(centres unmarked)", "hERG current change (%, negative = inhibition) at 1uM": 12.8}
{"smiles": "O=C(COC(=O)CCN=C1NS(=O)(=O)c2ccccc21)NNC(=O)c1ccccc1", "hERG current change (%, negative = inhibition) at 1uM": 7.22}
{"smiles": "CCN(CC(=O)Nc1c(F)cccc1F)C(=O)/C=C/c1ccc(S(=O)(=O)N2CCCCCC2)cc1", "hERG current change (%, negative = inhibition) at 1uM": 5.73}
{"smiles": "Cc1cc(C(=O)NN)n[nH]1", "hERG current change (%, negative = inhibition) at 1uM": 10.6}
{"smiles": "CCn1cc([N+](=O)[O-])c(C(=O)N2N=C(c3cccc4ccccc34)CC2c2ccccc2O)n1", "note": "(centres unmarked)", "hERG current change (%, negative = inhibition) at 1uM": 7.85}
{"smiles": "O=C(CCCn1c(=S)[nH]c2ccccc2c1=O)NC1CCCC1", "hERG current change (%, negative = inhibition) at 1uM": 9.53}
{"smiles": "O=[N+]([O-])c1ccc(-n2nnnc2CN2CCCCC2)cc1", "hERG current change (%, negative = inhibition) at 1uM": 5.88}
{"smiles": "COCCCNC(=O)Cn1cc(C(=O)C2CC2)c2ccccc21", "hERG current change (%, negative = inhibition) at 1uM": -23.1}
{"smiles": "CCc1ccccc1NC(=O)NCc1cccnc1", "hERG current change (%, negative = inhibition) at 1uM": 9.55}
{"smiles": "CN(C)CCCOc1ccc2c(c1)Sc1ccccc1CC2=O.Cl", "hERG current change (%, negative = inhibition) at 1uM": -53.3}
{"smiles": "COc1ccc(CCN=C(N)NS(=O)(=O)c2ccc(C)c(C)c2)cc1", "hERG current change (%, negative = inhibition) at 1uM": 5.94}
{"smiles": "O=C(Nc1cccc(Cl)c1Cl)C1CC(=O)N(c2ccc(Br)cc2)C1", "note": "(centres unmarked)", "hERG current change (%, negative = inhibition) at 1uM": 13.2}
{"smiles": "N#C/C(=C\\c1cccs1)C(=O)NCC1CCCO1", "note": "(centres unmarked)", "hERG current change (%, negative = inhibition) at 1uM": 12.6}
{"smiles": "COCCCn1c(C(=O)NC2CCCCC2C)cc2c(=O)n3cccc(C)c3nc21", "note": "(centres unmarked)", "hERG current change (%, negative = inhibition) at 1uM": 3.54}
{"smiles": "COc1ccc(C(=O)Nc2cccc(C(=O)O)c2)cc1S(=O)(=O)N1CCCC1", "hERG current change (%, negative = inhibition) at 1uM": 4.99}
{"smiles": "CN(c1ccc(O)cc1)c1nc(-c2cccs2)cs1", "hERG current change (%, negative = inhibition) at 1uM": 10.8}
{"smiles": "Cc1ccc(Cn2c(=N)n(CC(O)c3ccco3)c3ccccc32)cc1.Cl", "note": "(centres unmarked)", "hERG current change (%, negative = inhibition) at 1uM": -40.7}
{"smiles": "O=C(Nc1nc2ccccc2[nH]1)c1ccccc1OC(F)F", "hERG current change (%, negative = inhibition) at 1uM": 13.5}
{"smiles": "COc1ccc(Nc2nc(N)nc(CN3CCN(c4ccccn4)CC3)n2)cc1", "hERG current change (%, negative = inhibition) at 1uM": -37.1}
{"smiles": "COC(=O)c1ccccc1NC(=O)CN(c1ccccc1)S(=O)(=O)N(C)C", "hERG current change (%, negative = inhibition) at 1uM": 9.5}
{"smiles": "CC(OC(=O)c1ccc(=O)n(Cc2ccccc2)n1)C(=O)Nc1cccc(Cl)c1", "note": "(centres unmarked)", "hERG current change (%, negative = inhibition) at 1uM": 1.51}
{"smiles": "CCC(CC)C1C(C#N)=C(N)Oc2cc(C)oc(=O)c21", "note": "(centres unmarked)", "hERG current change (%, negative = inhibition) at 1uM": 5.65}
{"smiles": "CN(C)c1ccc(C(=O)NCC2CCCO2)cc1", "note": "(centres unmarked)", "hERG current change (%, negative = inhibition) at 1uM": 8.38}
{"smiles": "CCOC(=O)N1CCc2c(sc(NC(C)=O)c2C(N)=O)C1", "hERG current change (%, negative = inhibition) at 1uM": 14.5}
{"smiles": "Cc1c(OC(C)C(=O)N[C@H](C(=O)O)c2ccccc2)ccc2c3c(c(=O)oc12)CCCC3", "note": "(some centres unmarked)", "hERG current change (%, negative = inhibition) at 1uM": 9.47}
{"smiles": "COc1ccccc1/C=N/NC(=O)c1ccc(Cn2nc([N+](=O)[O-])cc2C)cc1", "hERG current change (%, negative = inhibition) at 1uM": 1.96}
{"smiles": "NC(=O)c1ccccc1N", "hERG current change (%, negative = inhibition) at 1uM": 10.4}
{"smiles": "N=c1n(CCOc2ccccc2)c2ccccc2n1CCN1CCOCC1", "hERG current change (%, negative = inhibition) at 1uM": -10}
{"smiles": "CCc1cccc(C)c1NC(=S)N1CCCCC1c1cccnc1", "note": "(centres unmarked)", "hERG current change (%, negative = inhibition) at 1uM": 9.32}
{"smiles": "Cc1cc(N/N=C/c2ccc(F)cc2)nc(NCc2ccccc2)n1", "hERG current change (%, negative = inhibition) at 1uM": -2.72}
{"smiles": "CC(C)[C@@H](C(=O)NCc1ccco1)N1C(=O)N2CCc3c([nH]c4ccccc34)[C@@]2(C)C1=O", "hERG current change (%, negative = inhibition) at 1uM": 12.2}
